The results in this text go back to the supplement of paper PMC8728848.

Assay in all cases: glycan array binding signal (z-score within array); higher = stronger binding
What all share (conditions): glycan notation: IUPAC condensed, linker removed; mutation: I144G

Assay [1] concerns the target Gal(b1-3)[Fuc(a1-4)]GlcNAc(b1-3)Gal(b1-4)[Fuc(a1-3)]GlcNAc. In a few lines:
(§1)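 Glycan array data were curated from 3228 arrays in the Consortium for Functional Glycomics database and kept only where the protein sequence was available. Glycan names were converted to IUPAC-condensed notation, and columns mapping to the same glycan were averaged. The binding signal is a within-array Z-score, averaged across arrays of the same protein sequence at different concentrations or buffers and across linkers. Negative Z-scores can be read as non-binding.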

Assay [2] has as its target Gal(b1-3)[Fuc(a1-4)]GlcNAc(b1-6)GalNAc. Put shortly:
as §1

The target of assay [3] is Gal(b1-3)[GlcNAc(b1-6)]GalNAc. In a few lines: as §1
The target of assay [4] is Gal(b1-3)[Neu5Ac(a2-6)]GalNAc. In a few lines:
as §1

Assay [5] has as its target Gal(b1-3)[Neu5Ac(a2-6)]GlcNAc(b1-4)Gal(b1-4)Glc. Put shortly:
as §1

In assay [6] the target is Gal(b1-3)[Neu5Ac(b2-6)]GalNAc. Put shortly: as §1
For assay [7], the target named is Gal(b1-4)Gal. Put shortly: as §1
Assay [8] concerns the target Gal(b1-4)GalNAc(a1-3)[Fuc(a1-2)]Gal(b1-4)GlcNAc. In a few lines: as §1
For assay [9], the target named is Gal(b1-4)GalNAc(b1-3)[Fuc(a1-2)]Gal(b1-4)GlcNAc. Put shortly:
as §1

For assay [10], the target named is Gal(b1-4)Glc. In a few lines: as §1
The target of assay [11] is Gal(b1-4)Glc6S. Put shortly:
as §1

For assay [12], the target named is Gal(b1-4)GlcNAc. In a few lines:
as §1

For assay [13], the target named is Gal(b1-4)GlcNAc(a1-6)Gal(b1-4)GlcNAc. Put shortly:
as §1

Assay [14] concerns the target Gal(b1-4)GlcNAc(b1-2)Man. In a few lines: as §1
Assay [15] addresses Gal(b1-4)GlcNAc(b1-2)Man(a1-3)Man(b1-4)GlcNAc(b1-4)GlcNAc. Put shortly: as §1
Assay [16] has as its target Gal(b1-4)GlcNAc(b1-2)Man(a1-3)[Gal(b1-4)GlcNAc(b1-2)Man(a1-6)]Man(b1-4)GlcNAc(b1-4)GlcNAc. Put shortly:
as §1

For assay [17], the target named is Gal(b1-4)GlcNAc(b1-2)Man(a1-3)[Gal(b1-4)GlcNAc(b1-2)Man(a1-6)]Man(b1-4)GlcNAc(b1-4)[Fuc(a1-6)]GlcNAc. In a few lines:
as §1

Assay [18] deals with Gal(b1-4)GlcNAc(b1-2)Man(a1-3)[Gal(b1-4)GlcNAc(b1-2)Man(a1-6)][Gal(b1-4)GlcNAc(b1-4)]Man(b1-4)GlcNAc(b1-4)[Fuc(a1-6)]GlcNAc. Put shortly: as §1
Assay [19] has as its target Gal(b1-4)GlcNAc(b1-2)Man(a1-3)[Gal(b1-4)GlcNAc(b1-2)Man(a1-6)][GlcNAc(b1-4)]Man(b1-4)GlcNAc(b1-4)[Fuc(a1-6)]GlcNAc. Put shortly: as §1
In assay [20] the target is Gal(b1-4)GlcNAc(b1-2)Man(a1-3)[GlcNAc(b1-2)Man(a1-6)]Man(b1-4)GlcNAc(b1-4)GlcNAc. In a few lines:
as §1

For assay [21], the target named is Gal(b1-4)GlcNAc(b1-2)Man(a1-3)[GlcNAc(b1-4)][Gal(b1-4)GlcNAc(b1-2)Man(a1-6)]Man(b1-4)GlcNAc(b1-4)GlcNAc. In a few lines: as §1
Assay [22] addresses Gal(b1-4)GlcNAc(b1-2)Man(a1-3)[Man(a1-6)]Man(b1-4)GlcNAc(b1-4)GlcNAc. Put shortly: as §1
The target of assay [23] is Gal(b1-4)GlcNAc(b1-2)Man(a1-6)Man(b1-4)GlcNAc(b1-4)GlcNAc. In a few lines:
as §1

This is one part of the list.

B1: rAAL-I144G (Agrocybe aegerita), Q6WY08 (protein)
chain: MQGVNIYNISAGTSVDLAAPVTTGDIVTFFSSALNLNAGAGNPNNTTLNLFAENGAYLLHIAFRLQENVIIFNSRQPDGPWLVEQRVSDVANQFAGIDGKAMVTVFDHGDKYQVVINEKTVIQYTKQISGLTLSLSYNATEETSGFSTVVEAVTYTGLALEHHHHHH
Regarding B1, the “glycan array binding signal (z-score)” value in assay [1] is -0.157; in assay [2], -0.038; in [3], -0.153; in assay [4] it was -0.165; in assay [5] it was -0.148; in [6] it was -0.183. Besides, the “glycan array binding signal (z-score)” value in assay [7] was -0.075; in [8], -0.236; in [9], -0.168; in assay [10], -0.168; in [11] it was -0.137; in assay [12], -0.12. Besides, the “glycan array binding signal (z-score)” value was -0.145 in assay [13]; 1.09 in assay [14]; -0.062 in assay [15]; -0.075 in assay [16]; -0.077 in assay [17]; -0.084 in assay [18]. In addition, the “glycan array binding signal (z-score)” value in assay [19] is -0.095; in assay [20] it was -0.118; in assay [21] it was -0.175; in [22] it was -0.061; in [23] it was -0.073.
